In PubChem BioAssay AID1460 (National Center for Advancing Translational Sciences (NCATS), 2008):
Out of some 270,000 compounds screened, about 5,800 (2.1%) were called active. The shares of active, inactive and inconclusive entries below differ from those in the screen. The call rests on the fitted dose curve; in most records, active means well fitted inhibition curve with a large enough effect; inconclusive means small, poorly fitted or top-dose-only effect; inactive means flat fitted curve, though single readings scatter. Potencies of inconclusive entries are doubtful fits and often do not repeat.
Further: nearly all actives have a fitted effect of over 55% in size.
On the % scale 0 is the no-effect control and ±100 the full control effect; potency means the concentration at half of the fitted maximal effect; tags describe the fitted curve by direction and shape.

The compounds below were run against Microtubule-associated protein tau (Homo sapiens) (UniProt P10636) (assay: qHTS for Inhibitors of Tau Fibril Formation, Thioflavin T Binding). Details: recombinant tau K18 P301L (four-repeat tau fragment), heparin-induced fibrillization, ThT fluorescence; series mostly up to 57.4 µM; activity, negative = inhibition: at the top concentration.
UniProt P10636, sequence (P10636 whole entry, looked up, the tested form may be a part): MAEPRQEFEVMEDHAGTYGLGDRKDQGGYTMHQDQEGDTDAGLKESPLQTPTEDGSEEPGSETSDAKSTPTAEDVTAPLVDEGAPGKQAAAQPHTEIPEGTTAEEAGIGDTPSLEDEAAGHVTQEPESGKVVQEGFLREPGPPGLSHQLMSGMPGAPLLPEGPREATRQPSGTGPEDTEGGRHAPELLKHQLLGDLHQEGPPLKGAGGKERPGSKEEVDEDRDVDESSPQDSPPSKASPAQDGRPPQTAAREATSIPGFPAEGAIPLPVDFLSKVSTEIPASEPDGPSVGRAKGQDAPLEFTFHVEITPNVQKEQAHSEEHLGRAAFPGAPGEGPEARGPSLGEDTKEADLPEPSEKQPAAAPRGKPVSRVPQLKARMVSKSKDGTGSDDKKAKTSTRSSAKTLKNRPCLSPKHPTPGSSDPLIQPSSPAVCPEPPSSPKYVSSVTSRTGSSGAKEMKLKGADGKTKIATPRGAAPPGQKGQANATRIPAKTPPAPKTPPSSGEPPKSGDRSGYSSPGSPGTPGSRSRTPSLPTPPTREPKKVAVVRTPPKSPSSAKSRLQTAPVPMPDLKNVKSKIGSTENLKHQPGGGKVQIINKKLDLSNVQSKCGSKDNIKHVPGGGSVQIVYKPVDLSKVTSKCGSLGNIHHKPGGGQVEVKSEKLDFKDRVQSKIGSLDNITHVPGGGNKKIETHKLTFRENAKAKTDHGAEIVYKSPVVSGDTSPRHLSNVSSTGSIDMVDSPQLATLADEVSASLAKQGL
In short: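 In this qHTS, human K18 P301L tau is incubated with compound and heparin for 6 hr at 37 C, and Thioflavin T fluorescence then reports fibril load.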
With `O=C(O)C1OC(Oc2cc3oc(-c4ccccc4)cc(=O)c3c(O)c2O)C(O)C(O)C1O` (configuration not stated) the Potency was inconclusive: 15.8 µM [inhibitor, partial curve]. With `COC(=O)c1cccc(NC(=S)N2CCN(c3ccccc3F)CC2)c1` the “activity, negative = inhibition” value was inactive: -14.3%. `Cc1cccc(N2CCN(C(=O)c3cc4ccc5cccnc5c4[nH]3)CC2)c1C` was tested, and the Potency was inconclusive: 14.1 µM [inhibitor, partial curve]. With `O=C(O)COc1ccccc1C(Nc1cccnc1)c1cc(Cl)c2cccnc2c1O` (configuration not stated) the Potency was active: 17.8 µM. `O=C(Cc1ccc(F)cc1)N1CCN=C1SCc1ccc([N+](=O)[O-])cc1` was tested, and the Potency was inconclusive: 10 µM [inhibitor, partial curve]. In the case of `Cc1occc1C(=O)Nc1nnc(-c2ccncc2)s1`, the Potency is reported as inconclusive: 8.91 µM [inhibitor, partial curve]. In the case of `CCOc1ccc2nc(NC(=O)c3cc([N+](=O)[O-])ccc3N3CCOCC3)sc2c1`, the Potency is reported as active: 3.16 µM. For `CCCN(CCC)CCNC(=O)c1cc2c(=O)oc3ccc(C)cc3c2s1`, the “activity, negative = inhibition” value was inactive: -2.18%. `COc1ccc(NC(=O)c2cc(C3CC3)nc3c2c(C)nn3-c2ccccc2)c(OC)c1` was tested, and the “activity, negative = inhibition” value was inactive: -3.67%. `Cc1c(C(=O)Nc2cccc(C(F)(F)F)c2)sc2nc3n(c(=O)c12)CCC3` was tested, and the “activity, negative = inhibition” value was inactive: -9.27%. For `Cc1cccc(Cn2cc3c(=O)n(CC(=O)Nc4cccc(C)c4C)nc-3c3cc(F)ccc32)c1`, the Potency was inconclusive: 7.94 µM [inhibitor, partial curve]. `Cc1ccc(-n2ncc3c(Nc4ccc(Oc5ccccc5)cc4)ncnc32)cc1` was tested, and the Potency was inconclusive: 10 µM [activator, partial curve, poor fit]. In the case of `O=[N+]([O-])c1c(NCCCO)cc(Sc2ccc(Cl)cc2)c2nonc12`, the Potency is reported as active: 12.6 µM. With `Cn1c(CCN2CCN(c3ccccc3)CC2)nc2cc(NC(=O)c3ccco3)ccc21` the Potency was inconclusive: 25.1 µM [inhibitor, partial curve]. In the case of `CCc1ccccc1NC(=O)C(C#N)Cc1cccnc1` (configuration not stated), the “activity, negative = inhibition” value is reported as inactive: -1.39%. For `C[C@@H]1CCC2[C@](C)(CO)C(O)CC[C@@]2(C)[C@@]12CC[C@](CO)(CCO)O2` (some centres not stated), the “activity, negative = inhibition” value was inactive: -0.491%. In the case of `O=C(NC(=S)N(CC1CCC1)CC1CCCO1)c1cccc([N+](=O)[O-])c1` (configuration not stated), the “activity, negative = inhibition” value is reported as inactive: -0.833%. For `Cc1ccc(CSc2ncn(-c3ccccc3)n2)cc1`, the “activity, negative = inhibition” value was inactive: -0.826%. For `Cc1ccc(NC(=O)C(=O)NCc2ccc(/C=N/NC(=O)c3c(C)nc4cc(C)ccn34)o2)cc1`, the Potency was inconclusive: 20 µM [inhibitor, partial curve]. `CCOc1ccccc1NC(=O)CSc1cn(CC(=O)N2CCCCCC2)c2ccccc12` was tested, and the “activity, negative = inhibition” value was inactive: -17.8%. For `FC(F)(F)c1cccc(NCc2n[nH]c(=S)n2C2CCCCC2)c1`, the “activity, negative = inhibition” value was inactive: -6.65%. For `CCn1cc(C(=O)OCC(=O)c2cc(C)n(-c3ccccc3)c2C)c(=O)c2ccc(C)nc21`, the Potency was inconclusive: 28.2 µM [inhibitor, partial curve, poor fit]. For `CN(C)c1cccc(C(=O)Nc2ccc(N3CCOCC3)cc2)c1`, the Potency was inconclusive: 14.1 µM [inhibitor, partial curve]. In the case of `O=C(C(NS(=O)(=O)c1cccc2nsnc12)c1ccccc1)N1CCN(c2ccccc2)CC1` (configuration not stated), the Potency is reported as inconclusive: 22.4 µM [inhibitor, single point]. `COc1cccc(-c2noc(-c3cc4ccccc4oc3=O)n2)c1OC` was tested, and the Potency was inconclusive: 14.1 µM [inhibitor, partial curve]. With `Cc1onc(-c2ccccc2)c1-c1n[nH]c(=S)n1-c1ccccc1Cl` the “activity, negative = inhibition” value was inactive: -4.29%. For `COc1cc([N+](=O)[O-])cc2cc(C(=O)N3CCN=C3c3ccccc3)c(=O)oc12`, the Potency was inconclusive: 20 µM [inhibitor, partial curve, poor fit]. `CCOC(=O)c1[nH]c(C)c(C(=O)Nc2cccc(Cl)c2C)c1C` was tested, and the Potency was inconclusive: 8.91 µM [inhibitor, partial curve]. For `COc1ccc(-c2noc(COc3ccc(C)c(C)c3)n2)cc1OC`, the Potency was inconclusive: 3.98 µM [inhibitor, full curve]. In the case of `CCOC(=O)N1CCN(Cc2nc3cc(NC(=O)CC(C)C)ccc3n2C(C)C)CC1`, the “activity, negative = inhibition” value is reported as inactive: 9.69%. With `CCOC(=O)c1sc2nc3n(c(=O)c2c1C)CCC3` the Potency was inconclusive: 15.8 µM [inhibitor, partial curve]. For `CC(Sc1nc2cc(Cl)ccc2s1)C(=O)Nc1ccc2c(c1)OCO2` (configuration not stated), the Potency was inconclusive: 10 µM [inhibitor, partial curve]. With `CC(C)CC1NC(=O)C(CCCN)NC(=O)C(C(C)C)NC(=O)C2CCCN2C(=O)C(Cc2ccccc2)NC(=O)C(CC(C)C)NC(=O)C(CCCN)NC(=O)C(C(C)C)NC(=O)C2CCCN2C(=O)C(Cc2ccccc2)NC1=O` (configuration not stated) the “activity, negative = inhibition” value was inactive: 1.37%. With `CCOC(=O)NC(N(O)c1cccc(Cl)c1)C(Cl)(Cl)Cl` (configuration not stated) the Potency was inconclusive: 31.6 µM [inhibitor, single point]. With `COc1ccc(CCNC(=O)c2cc(-c3ccc(C)c(C)c3O)n[nH]2)cc1OC` the Potency was inconclusive: 2 µM [inhibitor, full curve]. In the case of `CC(C)(C)CC(C)(C)NCC(=O)Nc1c2c(nc3ccccc13)CCC2`, the “activity, negative = inhibition” value is reported as inactive: 1.71%. For `COc1cc(/C=N/O)ccc1Oc1ccc([N+](=O)[O-])cc1[N+](=O)[O-]`, the Potency was inconclusive: 15.8 µM [inhibitor, partial curve, poor fit]. With `CC(C)(C)OC(=O)N[C@@H](Cc1ccccc1)c1nnc(SCC(N)=O)o1` the “activity, negative = inhibition” value was inactive: -9.07%. In the case of `CCC(CC)C(=O)OCC(=O)Nc1cc(OC)c([N+](=O)[O-])cc1C`, the “activity, negative = inhibition” value is reported as inactive: -7.33%. In the case of `O=c1oc2ccccc2nc1/C=C(O)/C=C\c1ccccc1`, the Potency is reported as active: 28.2 µM. With `O=C(Cc1c[nH]c2ccccc12)N/N=C/c1cccc(F)c1` the Potency was inconclusive: 39.8 µM [inhibitor, single point]. `CN1C2CCC1CC(NC(=O)CSCc1ccc(Cl)cc1Cl)C2` (configuration not stated) was tested, and the “activity, negative = inhibition” value was inactive: -7.68%. For `Cc1ccc(CSc2ccc(-c3cccs3)nn2)cc1`, the Potency was “inactive”. In the case of `O=C(Cn1ncc2c3ccccc3n(Cc3ccccc3F)c2c1=O)NC1CCCCCC1`, the “activity, negative = inhibition” value is reported as inactive: 3.79%. `O=C(CCCc1nc2ccccc2s1)Nc1nccs1` was tested, and the “activity, negative = inhibition” value was inactive: -17.7%. With `O=C1C(Cl)=C(NCCc2ccccc2)C(=O)N1CCc1ccccc1` the “activity, negative = inhibition” value was inactive: 6.76%. With `COC(=O)C1=C(C)N(C(C)c2ccccc2)C(=O)/C1=C\c1ccco1` (configuration not stated) the Potency was active: 22.4 µM.
